Experimental data as given in ChEMBL document CHEMBL4888484, “Replenishing the malaria drug discovery pipeline: Screening and hit evaluation of the MMV Hit Generation Library 1 (HGL1) against asexual blood stage Plasmodium falciparum ,using a nano luciferase reporter read-out” (2022).
Out of some 150,000 compounds screened, about 540 (0.36%) showed an effect of 50% or more. This is one part of the list.

These compounds were tested on Plasmodium falciparum (assay: Primary screen in NF54 nanoGlo assay, in single point, at 2uM, 72h; a lower Z score goes with more inhibition). Settings: timepoint 72 hour.
Type: functional, Erythrocyte

SMILES | % Inhibition | Z score
COCCn1cnc(-c2ccccc2)c1-c1cccc(Cn2cccn2)c1 | -7% | 1.42
Cc1nc2ccccn2c1CN1C(=O)CN(c2ccccc2)C1=O | -5% | 0.75
Cn1nccc1-c1cncc(CNC(=O)c2cscn2)c1 | 8% | -1.04
CNc1oc(-c2ccc(Cl)cc2Cl)nc1S(=O)(=O)c1ccc(Cl)cc1 | -17% | 1.54
CCOc1ccccc1N(C)C(=O)[C@H]1CCn2ccnc2C1 | -14% | 1.57
O=C(Cn1ncc2c1-c1ccoc1CC2)NCc1ccccc1Cl | -6% | 0.83
CCn1cc(N)c(=O)c(Br)c1 | -2% | 0.2
CC(C)c1noc(CN2C[C@@](C)(c3ccccc3)CCC2=O)n1 | -21% | 2
CCCCC(=O)NC1(C#N)CCC2(CC1)OCCO2 | -5% | 0.84
CCCn1ncc(C(=O)N(C)[C@@H](C)c2nccs2)c1C | -9% | 1.11
C[C@]1(c2nc(-c3ccccc3-n3cccn3)no2)CCNC(=O)C1 | -2% | 0.36
COCc1cc(C(=O)NCc2nc3ccccc3s2)no1 | 3% | -0.36
O=C(Nc1cccc2ncccc12)c1ccc2nsnc2c1 | 1% | -0.11
CCC(C)(C)NC(=O)Cc1ccc(Cl)cc1F | -5% | 0.63
COc1cc(NC(=O)[C@@](C)(OC)C2CC2)ncc1Br | -3% | 0.3
COc1c(CN2C(=O)c3ccccc3C2=O)cc(CN2C(=O)c3ccccc3C2=O)cc1CN1C(=O)c2ccccc2C1=O | -15% | 2.77
COc1ccc(CN2C(=O)COC[C@H]2C(=O)Nc2ccc(F)c(F)c2)cc1 | -14% | 1.66
Cc1cc(C(=O)N2CCOC[C@@H]2CC2CCC2)no1 | 1% | -0.08
Cc1ccc2nc(Cc3ccccc3)c(NC(=O)c3ccc(Cl)c(Cl)c3)n2c1 | -4% | 0.65
CC(C)c1nccn1C1CN(C(=O)c2nccc3ccccc23)C1 | -11% | 1.39
Cc1c(C(=O)Nc2nccs2)cccc1-n1cnnc1 | 4% | -0.77

SMILES | % Inhibition | Z score
CN1CCC(CNC(=O)C[C@H]2CCCCC2(C)C)CC1 | -17% | 2.26
O=C1CN(Cc2nc(-c3ccc(F)cc3)no2)CCN1 | -9% | 1.44
Cc1nn(C)cc1S(=O)(=O)N1CC[C@@H](C(F)(F)F)n2nc3nc(C(F)(F)F)cc(C)c3c21 | 5% | -0.6
CCc1nnc(CNC(=O)Cn2nc(C)n(Cc3ccccc3)c2=O)s1 | -7% | 1.29
Cn1cncc1CN1CCC(N2C[C@H](COc3ccc(F)cc3)OCC2=O)CC1 | -7% | 0.93
CN=C(NCCc1ccncc1C)N[C@@H](C)c1ccccc1OC | 9% | -1.1
Cc1c(NC(=O)c2nc(C(C)C)cs2)cccc1C(=O)N1CCc2sccc2C1 | -3% | 0.58
Cc1ncsc1CN1CCC(N2CC3(CCCC3)[C@H]2c2ccccc2)CC1 | -7% | 1.11
Cc1ccc(NC(=O)c2ccc(-c3c(-c4ccc(F)cc4)ncn3C3CCCCC3)o2)c(Cl)c1 | 0% | 0.01
Cc1cc(C(=O)N2CCN(Cc3cc4n(n3)CCC4)[C@H](C)C2)n[nH]1 | 1% | -0.23
CC(=O)N[C@@H]1C(=O)N(CCCOc2cccc(C)c2)c2c(C)cccc21 | -14% | 2.64
Cc1cc(CC(=O)NCc2nc(C)c3c(n2)CCCC3)on1 | -9% | 0.84
CC(C)c1nsc(CN[C@H](c2cnn(C)c2)C2(CO)CCC2)n1 | -10% | 1.12
CN(C[C@H]1CCN(c2ccccc2)C1)C(=O)CCn1ccc(=O)[nH]c1=O | 0% | 0
Cc1cccc2[nH]c([C@H]3CCCN(C(=O)C4CCOCC4)C3)nc12 | -12% | 2.22
O=S(=O)(NCC#CCN1CCc2ccccc2C1)c1ccc(Cl)s1 | -1% | 0.06
NC(=O)c1cccc(-c2ccc([C@@H](N)c3ccccc3)cc2)c1 | 3% | -0.62
Cc1cc(C)cc(NC(=O)C2[C@@H]3C=C[C@]4(O3)C(C(=O)NC3CCCCC3)N(C3CCC(C)CC3)C(=O)[C@H]24)c1 (some centres undefined) | -10% | 1.62
CC[C@H](NC(=O)c1[nH]nc(C)c1Cl)C1CC(O)C1 (some centres undefined) | -19% | 2.52
Cc1cc2c(Cc3ccccc3)n[nH]c(=O)c2c(=O)[nH]1 | -10% | 1.6
CNC(=O)c1cccc(S(=O)(=O)N[C@H]2CCOC[C@@H]2OCC2CC2)c1 | -6% | 1.14
